Laboratory results from PubChem BioAssay AID493005 (National Center for Advancing Translational Sciences (NCATS), 2010).
Among all 340,000 compounds or so, fewer than 10 were called active. Inconclusive results, whose numbers are uncertain, are shown with a selection of clear calls. Calls follow the shape of the dose curve; as a rule, active = well fitted inhibition curve with a large enough effect in the main read-out, with a control signal flat (not every such curve was filed as active); inconclusive = small, poorly fitted or top-dose-only effect, or effect the other way, or a change in a side signal; inactive = no such curve, though single readings can be large or run the other way. Potencies beside an inconclusive call are fits to weak or partial responses and may not hold up. A note “side channel” means that the fit belongs to a control or component signal, not to the main read-out.

The compounds below were run against Tumor susceptibility gene 101 protein (Homo sapiens) (UniProt Q99816) (assay: qHTS Assay for Iinhibitors of HIV-1 Budding by Blocking the Interaction of PTAP/TSG101). Conditions: Fluorescence polarization, FITC-PTAP peptide / Tsg101 binding; series mostly up to 115 µM.
Procedure, shortened: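 Fluorescence anisotropy tracks displacement of a FITC-tagged PTAP peptide (50 nM) from the Tsg101 binding domain (10 uM), following a 20 min room-temperature incubation at pH 7.5.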
Potency is read from the fitted curve at half-maximal effect; tags tell the direction and shape of the fitted curve or compound fluorescence and quenching.

Chain of UniProt Q99816 (Q99816 whole entry, looked up, the tested form may be a part): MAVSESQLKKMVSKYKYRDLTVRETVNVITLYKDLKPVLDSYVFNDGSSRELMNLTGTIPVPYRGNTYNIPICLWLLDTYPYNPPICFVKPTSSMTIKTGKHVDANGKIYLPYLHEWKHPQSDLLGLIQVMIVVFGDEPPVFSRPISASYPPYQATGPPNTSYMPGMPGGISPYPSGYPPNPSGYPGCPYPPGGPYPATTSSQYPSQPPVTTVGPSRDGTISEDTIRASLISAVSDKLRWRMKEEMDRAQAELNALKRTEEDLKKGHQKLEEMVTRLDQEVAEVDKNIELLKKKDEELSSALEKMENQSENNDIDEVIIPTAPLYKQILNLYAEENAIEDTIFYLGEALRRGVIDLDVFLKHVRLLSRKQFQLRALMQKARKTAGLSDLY

SMILES | Potency
CCOC(=O)c1sc2ccccc2c1OC(=O)c1ccccc1OC | inconclusive: 89.1 µM [fluorescent, side channel, single point]
CC(C)C[C@H](NC(=O)c1nc[nH]c1C(=O)NC(c1ccccc1)c1ccccc1)C(=O)OC(C)(C)C | inconclusive: 31.6 µM [quencher, side channel, partial curve, poor fit]
O=C1CC(Nc2ccc(N3CCOCC3)cc2)C(=O)N1c1ccccc1 (stereo not given) | inactive
CCOc1ccc(NC(=O)/C(C#N)=C\c2ccc(N3CCCC3)c(C)c2)cc1 | inconclusive: 56.2 µM [fluorescent, side channel, partial curve, poor fit]
O=[N+]([O-])c1ccc(Sc2cccc[n+]2[O-])c2nonc12 | inconclusive: 56.2 µM [fluorescent, side channel, partial curve, poor fit]
Cc1ccc(NC(=O)CN(C)C(=O)C(Sc2ccccc2)c2ccccc2)cc1 (stereo not given) | inactive
COc1ccc(C2CC(c3ccncc3)=NN2c2ccc(S(N)(=O)=O)cc2)cc1 (stereo not given) | inconclusive: 89.1 µM [fluorescent, side channel, single point]
Cc1cc(N(CCO)CCO)ccc1C(c1ccc(N(CCO)CCO)cc1C)c1ccccc1Cl | inactive
O=C(O)c1cccc(NC2=C(n3nnc4ccccc43)C(=O)c3ccccc3C2=O)c1 | inactive
C[C@H](NC(=O)c1nc[nH]c1C(=O)N[C@@H](Cc1ccccc1)C(=O)OC(C)(C)C)C(=O)OC(C)(C)C | inconclusive: 35.5 µM [quencher, side channel, partial curve, poor fit]
Cn1nnnc1SCCNCc1cc(Cl)ccc1OCc1ccccc1 | inactive
CC(C)CCNC(=O)c1cccc(S(=O)(=O)N2CCc3ccccc32)c1 | inactive
O=C1CCCCC1c1cccc2ccccc12 (stereo not given) | inactive
CN1CCc2c(sc3c2C(=O)NC(c2ccccn2)N3)C1 (stereo not given) | inconclusive: 56.2 µM [fluorescent, side channel, partial curve, poor fit]
COCCNc1nc(C)cc(-c2cc(-c3ccc(Cl)cc3)on2)n1 | inconclusive: 79.4 µM [quencher, side channel, partial curve, poor fit]
O=C(O)c1ccc(CN2C(=O)c3cccc4c([N+](=O)[O-])ccc(c34)C2=O)cc1 | inconclusive: 79.4 µM [fluorescent, side channel, partial curve, poor fit]
O=C1c2cccc3c([N+](=O)[O-])ccc(c23)C(=O)N1Cc1cccnc1 | inconclusive: 79.4 µM [fluorescent, side channel, partial curve, poor fit]
O=Cc1nccc2ccccc12 | inconclusive: 79.4 µM [fluorescent, partial curve]
COC(=O)C1=C(C)NC2=C(C(=O)CC(C)(C)C2)C1c1ccsc1 (stereo not given) | inactive
Cc1ccnc(N/C=C(\C#N)c2nc(-c3cccc(Br)c3)cs2)c1 | inconclusive: 10 µM [fluorescent, side channel, full curve, poor fit]

SMILES | Potency
CS(=O)(=O)Nc1nc2n(n1)C(c1ccccc1)C=C(c1ccc(Br)cc1)N2 (stereo not given) | inconclusive: 56.2 µM [fluorescent, side channel, partial curve, poor fit]
OCCN(CCO)c1nc(N2CCCCC2)c2nc(N(CCO)CCO)nc(N3CCCCC3)c2n1 | inconclusive: 56.2 µM [fluorescent, side channel, partial curve, poor fit]
O=C(O)CCN1C(=O)/C(=C/c2cn(-c3ccccc3)nc2-c2cccs2)SC1=S | inconclusive: 89.1 µM [fluorescent, side channel, single point]
Cc1c(N=C2N=C(NC(=O)c3cccs3)c3ccccc32)c(=O)n(-c2ccccc2)n1C | inconclusive: 79.4 µM [fluorescent, side channel, partial curve, poor fit]
Cn1c(O)c(N=Nc2ccc(F)cc2)c2ccccc21 | inconclusive: 89.1 µM [fluorescent, single point]
O=C(CN1CCN(C/C=C/c2ccccc2)CC1)NC(=O)NC1CCCCC1 | inactive
C=CCNc1nc(Cl)nc(NC2CCCCC2)n1 | inactive
CS(=O)(=O)/C(C#N)=C/c1c(-c2ccccc2)nc2n1CCS2 | inconclusive: 50.1 µM [fluorescent, side channel, partial curve, poor fit]
CC1=C(C(=O)OC(C)C)C(c2ccc(Cl)cc2)n2c(s/c(=C\c3ccc(OCC(=O)O)cc3)c2=O)=N1 (stereo not given) | inconclusive: 50.1 µM [fluorescent, side channel, partial curve, poor fit]
N#C/C(=C\c1ccc(N2CCOCC2)o1)C(=O)N1CCOCC1 | inconclusive: 50.1 µM [fluorescent, side channel, partial curve, poor fit]
O=C(Nc1ccc([N+](=O)[O-])cc1)C(Cc1ccccc1)N1C(=O)c2cccc3cccc(c23)C1=O (stereo not given) | inactive
Cc1ccc(/C(O)=C/c2nc3ccccc3oc2=O)cc1 | inconclusive: 56.2 µM [fluorescent, side channel, partial curve, poor fit]
Cn1c(-c2ccc(C=O)s2)nc2c3ccccc3c3ccccc3c21 | inconclusive: 56.2 µM [fluorescent, side channel, partial curve, poor fit]
COC1C(CO)OC(n2c3c(Cl)cccc3c3c4c(c5c6cccc(Cl)c6[nH]c5c32)C(=O)NC4=O)C(O)C1O (stereo not given) | inconclusive: 56.2 µM [fluorescent, side channel, partial curve, poor fit]
Cn1nc(C(F)(F)F)cc1-c1ccc(/C=C(\C#N)C(=O)c2ccccc2)s1 | inconclusive: 79.4 µM [fluorescent, side channel, partial curve, poor fit]
COc1ccc(Cn2cc3c(-c4ccc(F)cc4)nnc-3c3cc(OC)c(OC)cc32)cc1 | inconclusive: 56.2 µM [fluorescent, side channel, partial curve, poor fit]
CCOc1ccc(/C=C/C(=O)Nc2ccc(OC)cc2[N+](=O)[O-])cc1 | inconclusive: 56.2 µM [fluorescent, side channel, partial curve, poor fit]
COC(=O)[C@H]1[C@@H](C)N(Cc2ccccc2)C(=O)N[C@H]1c1ccccc1 | inactive
COc1cc(C(=O)NC2CC3CCCC(C2)N3CC(=O)Nc2ccccc2)cc(OC)c1OC (stereo not given) | inactive
CCN(CCS(=O)(=O)c1ccc(Cl)cc1)Cc1nc2ccccc2c(=O)[nH]1 | inactive

SMILES | Potency
O=S(=O)(Nc1nccs1)c1ccc(NS(=O)(=O)c2c(F)cc(F)c(Cl)c2F)cc1 | inactive
COc1ccc(CN(C(=S)Nc2ccccc2)C2CC(=O)N(c3ccc(Cl)cc3)C2=O)cc1 (stereo not given) | inactive
O=Cc1ccc2noc(-c3ccc(F)cc3)c2c1 | inconclusive: 56.2 µM [fluorescent, partial curve, poor fit]
COc1cc2c(cc1OC)C(c1cccc(Br)c1)CC(=O)N2 (stereo not given) | inactive
O=C1NC(=Nc2ccccc2Cl)S/C1=C\c1cc([N+](=O)[O-])ccc1O | inconclusive: 15.8 µM [fluorescent, side channel, full curve, poor fit]
COc1cccc(C(=O)N2N=C(c3ccccc3)CC2(O)C(F)(F)F)c1 (stereo not given) | inconclusive: 63.1 µM [fluorescent, side channel, partial curve, poor fit]
O=[N+]([O-])c1ccc(O)c(C=Nc2cccc3ccccc23)c1 | inactive
COc1cccc2sc(Nc3nnc(-c4ccc(F)cc4)o3)nc12 | inactive
COc1ccccc1CNCC(O)(c1ccc(Cl)cc1)c1ccc(Cl)cc1 | inactive
COc1ccc(C(=O)/C=C/Sc2nc3ccccc3o2)cc1 | inactive
O=[N+]([O-])c1cc(Cl)cc(/C=N/n2cnnc2)c1O | inconclusive: 56.2 µM [falling, partial curve, poor fit]
CCOc1ccc(OCCC(=O)OCC(=O)N2CCN(S(=O)(=O)c3ccc(Cl)cc3)CC2)cc1 | inactive
Cc1ccc(S(=O)(=O)N(C)C)cc1NC(=O)CN1C(=O)NC2(CCCCCCC2)C1=O | inactive
CCc1cc(C(=O)OC)c(NC(=O)CC2Nc3cc(C)c(C)cc3NC2=O)s1 (stereo not given) | inconclusive: 56.2 µM [fluorescent, side channel, partial curve, poor fit]
CN(C)c1ccc(/C=N/N(CCC#N)C2=NS(=O)(=O)c3ccccc32)cc1 | inconclusive: 56.2 µM [fluorescent, side channel, partial curve, poor fit]
N#Cc1ccccc1Cn1cc(/C=C/[N+](=O)[O-])c2ccccc21 | inactive
N=C1/C(=C\c2coc3ccccc3c2=O)C(=O)N=C2SC(c3ccncc3)=NN12 | inconclusive: 50.1 µM [fluorescent, side channel, partial curve, poor fit]
COC(CNC(=O)c1ccc2c3c(onc13)-c1ccccc1C2=O)OC | inconclusive: 56.2 µM [fluorescent, side channel, partial curve, poor fit]
CCN(CC)C(=O)Cn1c(C)c(/C=C/c2cc[n+](C)cc2)c2ccccc21 | inconclusive: 22.4 µM [fluorescent, side channel, full curve]
CCOc1ccc2c(c1)S/C(=C\c1cccs1)C(=O)N2 | inconclusive: 79.4 µM [fluorescent, side channel, partial curve, poor fit]
